± gives the standard deviation of the averaged measurements. Some of the results follow.
tested on: PfAP2-EXP AP2 domain (GST-tagged); test: gcPBM binding intensity (ln(normalized median fluorescence intensity)); higher = stronger DNA binding
Summary of the method: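 Using an Agilent 4 × 180k array, primer-extended double-stranded 36-bp intergenic genomic probes and negative controls were exposed for 1 h to GST-fused P. falciparum DNA-binding domains expressed in E. coli. Binding was carried out in 1× PBS with 1% milk, 0.2 mg/ml BSA, 0.5% salmon testes DNA and 0.03% Triton X-100, and protein was detected with Alexa488 anti-GST antibody and a 488 nm scan. Binding intensity is the highest Masliner-normalised natural-log median intensity across replicate spots of either probe orientation.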

| Sequence | gcPBM binding intensity (ln) |
| --- | --- |
| AAGAAAAAAAAAAAAACACACATATATTTATTTATA [CACACA_site7042] | 8.06 ± 0.47 |
| GAAAGAAAAAATGATGAATAGAGATCAAATCTATAT [XGTACX_negctrl_site28] | 8.47 ± 0.24 |
| TATACACATAGACACACACACAAAAAAAAAAAAAAA [CACACA_site6338] | 8.25 ± 0.54 |
| TGACATATTATTAGGTGGTCACGTCTCCACGTCAAG [XGTACX_site7943] | 8.54 ± 0.36 |
| TAATTGTACACATGCACACACAAATATTATAGATGT [CACACA_site6528] | 8.99 ± 0.37 |
| TTGAGAAAAATTAATGGTACACATATTATAAGTATA [XGTACX_site6539] | 8.59 ± 0.45 |
| TGTATAACATTTAGGTGTACAATTATATATAATATA [XGTACX_site8131] | 8.51 ± 0.47 |
| TTTTAAAAAAATATAATACACACCAAAAATATGCAC [CACACA_site2131] | 8.94 ± 0.21 |
| AGTAAATTATATATCTGTACATATATATATGTGTAT [XGTACX_site5519] | 8.64 ± 0.35 |
| AAAAATTCATTTTTATGTACGTACAAATTCTTCGTT [XGTACX_site2471] | 8.66 ± 0.26 |
| ACTATATATATAAGTGCATGTTCATTATACCTAAAG [TGCATGCA_site696] | 8.75 ± 0.42 |
| CTCACAAATGAATACACACAAACATATATATTTATA [CACACA_site1620] | 8.52 ± 0.49 |
| AAAAAAATATAAATACGTACATATATATATATATAT [XGTACX_site432] | 10.2 ± 0.46 |
| CTATTCTATTTTTATTGTACATATATATAATTTGAA [XGTACX_site389] | 8.41 ± 0.21 |
| ACACATGAATATTGTAGTACGGCAATTAATATAATA [XGTACX_site4589] | 8.59 ± 0.38 |
| ATATAATGGCTAAATAGTACAATATAATATTTTTTA [XGTACX_site8922] | 8.06 ± 0.35 |
| TGGAATAATACGCGTACACACATATAAATATTAATA [CACACA_site6211] | 8.78 ± 0.38 |
| AGAAAGGAAAAAACCTCACACATGCTTTTAATAGTA [CACACA_site4602] | 8.32 ± 0.49 |
| AAATTCGTTATAAAAACATGCAACGATCAACATTGT [TGCATGCA_site844] | 8.64 ± 0.35 |
| TTACTCTTTATATAATGTACATATATATATATATTA [XGTACX_site2624] | 8.63 ± 0.3 |
| GTGTGGAGTTACAAAGAGGAGAACCTCACAGTAATC [CACACA_negctrl_site527] | 8.55 ± 0.35 |
| TTTTTTATATTGTGATGTACAAATTTTAAAATGTAG [XGTACX_site1875] | 8.48 ± 0.18 |
| ATATATATATATATAATACACACTTATGAAATGTCT [CACACA_site1827] | 10.2 ± 0.17 |

| Sequence | gcPBM binding intensity (ln) |
| --- | --- |
| TTATGTGATAAAAAAAAAATACAACAAAGTTAAATA [GTGCAC_negctrl_site36] | 8.42 ± 0.41 |
| TTACACATATTTTTAATTATTCTGAATTCAAAAAAA [CACACA_negctrl_site1706] | 8.18 ± 0.39 |
| ATAATCATAAAATAAACACACATATATAAATATATT [CACACA_site276] | 8.27 ± 0.47 |
| GTAATATTAAAATATACACACATAGAATATATATAT [CACACA_site4391] | 9.51 ± 0.14 |
| GTATATATTTCCAGAAGTACTTATTTTTATGTATGT [XGTACX_site4079] | 8.8 ± 0.47 |
| TGAAAAAAGAAAAATACACACATATAACATAATATA [CACACA_site7126] | 8.5 ± 0.52 |
| AATCTATATTAATACACACACACATATATTTATATA [CACACA_site7732] | 8.55 ± 0.38 |
| TTTATTTTGACAGATTGTACACTTTATACATGTTTT [XGTACX_site2356] | 8.8 ± 0.44 |
| AAAACACGCGGACACACACACACACCCACCCATATA [CACACA_site8688] | 8.68 ± 0.48 |
| TTTTAATATTTTGCCTGTACATAAAAGTGAGAAGAT [XGTACX_site2503] | 9.03 ± 0.3 |
| TGATTACATATGATGTGTACCTAATTTTGTTTACAC [XGTACX_site7032] | 8.59 ± 0.29 |
| AAAAATGCCAGAAAACGTACTCGGATTTTCTAATAT [XGTACX_site6552] | 8.45 ± 0.33 |
| TTATATTTATTGATATGTACATATTATAATTAATTA [XGTACX_site586] | 8.54 ± 0.38 |
| AAATAGTTCATAAAAAGTACAAAATTTTTATCCGTA [XGTACX_site2796] | 8.44 ± 0.41 |
| ATCATTCATTTAACAACACACAACATATTTATCATA [CACACA_site1041] | 8.57 ± 0.35 |
| TATAAAGGTTGGTACTGTACAATATAAGAAAAAAAA [XGTACX_site435] | 8.82 ± 0.47 |
| TATATATTATATAAGAGTACATATAATTATAGTTTT [XGTACX_site5039] | 8.37 ± 0.33 |
| ATAAAACAAGCAAATCGTACAAAAGGATAATATATA [XGTACX_site5592] | 8.9 ± 0.32 |
| TTAGGTAGAAAAAAGACACACACATTATATATATAT [CACACA_site8016] | 9.75 ± 0.28 |
| ATATATATTTAAGAGGGTACAAAAATTTATGAGCAT [XGTACX_site6156] | 8.78 ± 0.49 |
| AAAAAAAAAAAAAACACACACACACCCATACCCATA [CACACA_site5577] | 8.61 ± 0.35 |
| ATGTATGGTTTATATGTTCATTTGTTCACCTATTTA [CACACA_negctrl_site1533] | 8.95 ± 0.47 |
| TCTTTGGTAATATATATGTATAAATATAAATATATA [CACACA_negctrl_site1566] | 8.16 ± 0.33 |

| Sequence | gcPBM binding intensity (ln) |
| --- | --- |
| ATATATATATATGTTAGTACATAACAAGTGTGCATA [XGTACX_site1527] | 9.97 ± 0.22 |
| TTTTTTGCTAAGTGTACACAAATGTTTATTAATTTA [CACACA_site5859] | 8.81 ± 0.35 |
| GATAAAATGAGACCAGTGCATTATTAGTTGTACACC | 8.945 ± 0.078 |
| TATACATATTTATACACACACACATATATTTATATA [CACACA_site6727] | 8.6 ± 0.49 |
| TGTGCTTATCCTAACACACACAACATATAAGAAAAA [CACACA_site3319] | 8.63 ± 0.5 |
| AAAAAATAAAAAATATGTACACATTCAAAATTTTAC [XGTACX_site8479] | 8.52 ± 0.35 |
| ATATATATATATATATGTACATATTACATTACTTAT [XGTACX_site749] | 10.1 ± 0.27 |
| AAAAAGAAAAAAAACACACACAAATATAAATAAATA [CACACA_site1183] | 8.6 ± 0.55 |
| CAAATACACCAACACACACACACAAAAAAAAAAAAA [CACACA_site514] | 8.18 ± 0.53 |
| TAAGTACGACTTGACACACATACACATATATATATA [CACACA_site1286] | 9.94 ± 0.22 |
| ATTACCAACAGATCTTGTACATATTAAAGCATCTTA [XGTACX_site2361] | 8.46 ± 0.35 |
| ATATACAAAGAAGCAGTGCATATTTTCTTATTTATG [GTGCAC_site9567] | 8.48 ± 0.33 |
| TGAAAGAATAGAATGAGTACTAATTTAAATTACACT [XGTACX_site1120] | 8.47 ± 0.25 |
| TTCTTTATATATTTTTGTACATATTTATTTTTAGAG [XGTACX_site6757] | 8.86 ± 0.33 |
| TTGATTTCATTTTAAGTGCATAACTAATATTATATA [GTGCAC_site9713] | 8.54 ± 0.2 |
| TAAAAAATAAAATACACACACATATATATATATATA [CACACA_site1323] | 10.2 ± 0.64 |
| AAAAAAATTAAAGATTGTACTTGATTTTTCATTTTA [XGTACX_site6685] | 8.15 ± 0.37 |
| TATATTCTTTTTTTAACACACAAAAAAAATAAAATA [CACACA_site1898] | 8.24 ± 0.47 |
| GAGGGAAAAAATAATCGTACAAAGAAAAAAAAAAAT [XGTACX_site7361] | 8.64 ± 0.64 |
| TTTTTTTCATAAATTAGGTAATGTCGCAGGGGGACA [TGCATGCA_negctrl_site556] | 9.54 ± 0.14 |
| AAAGAATTGTATAAAAGTACATATTTGTTTGTTTTA [XGTACX_site7380] | 8.18 ± 0.52 |
| AAAGAAAAAGAAAAAGAAAAAATAAAATAAAATAAA [CACACA_negctrl_site872] | 8.48 ± 0.45 |
| CTTTAATATATTTAAGTGCAAAACTAATATGTAAAG | 8.69 ± 0.31 |

| Sequence | gcPBM binding intensity (ln) |
| --- | --- |
| TATATATTATATATATGTACTTATTCATATATATAA [XGTACX_site3860] | 8.31 ± 0.22 |
| TATTTAAAAACAAAAAGTACTAATATATATTTATAC [XGTACX_site1422] | 8.49 ± 0.52 |
| AGTAGTATGGAGAAAAGTACATAGTATCTGATAACC [XGTACX_site2040] | 8.86 ± 0.38 |
| GACTGAACAACATAATGTACATTTATAAGTATATAT [XGTACX_site3813] | 8.74 ± 0.41 |
| TTTTCTATATAGTGTTGTACATTATTGTGTAAAAAT [XGTACX_site3223] | 8.61 ± 0.37 |
| ATAAAATTGGAGCAAACACACAAGGTTGAAATTAAC [CACACA_site506] | 8.91 ± 0.55 |
| ATATTTTATACTTGCACACAAAATATATTAAAATGG [CACACA_site5139] | 8.47 ± 0.4 |
| TTATGTTGTAAATGCACACATACAAATACATATACA [CACACA_site1368] | 8.61 ± 0.2 |
| TACAATATAAAATACACACGCACACCGAAAAAAAAA [CACACA_site5865] | 8.53 ± 0.4 |
| AAGAAAAAAAAGATAATAATAATAATAATAAAATGA [TGCATGCA_negctrl_site398] | 8.53 ± 0.32 |
| ATTTATTAAAAGAAATGTACAGAAAATGTTTGGAAT [XGTACX_site7187] | 8.86 ± 0.39 |
| ATTTAATATCACAATATATTTTTTACCCTTATCAGC [CACACA_negctrl_site491] | 8.47 ± 0.47 |
| TATATGGTATGTATTACACACATATCACATATATAT [CACACA_site3045] | 8.51 ± 0.41 |
| GGAATGGTACATGATACACACACGCACATATAAATA [CACACA_site7581] | 8.76 ± 0.47 |
| TGGTAAATTGAGAATCGTACATTAAAAAACATAAAA [XGTACX_site3253] | 8.69 ± 0.35 |
| TTAATAATAAAAAGGAGTACACTAATATACTATAAA [XGTACX_site2346] | 8.59 ± 0.099 |
| TTAAGAAACAAAGAAAGTACACAACATAATATAGAA [XGTACX_site477] | 8.98 ± 0.43 |
| AATAAAATCATCTATACACACAAAAAAAATAAGAAA [CACACA_site2101] | 8.66 ± 0.48 |
| ATATAATATATATATAAACACACAAAAAAAATTATA [CACACA_site8434] | 8.74 ± 0.48 |
| AATAACCACGGACACACACACATATATATATATATA [CACACA_site5873] | 10.2 ± 0.46 |

— the supplement of paper PMC11417369
